# ± gives the standard deviation. Only a part is listed here, and it is no random draw.
# Tested on: MIWI (PIWIL1) piRISC loaded with L1MC piRNA (30 nt)
# Test: pre-steady-state target cleavage rate (min^-1); MIWI and MILI are mouse PIWI proteins and EfPiwi is from a freshwater sponge; tags in brackets are library labels; higher = faster piRNA-guided slicing of the target
# Conditions: guide: L1MC piRNA 5'p-UAACUAAAUACUAUGCAAGCUGUAGGUCCU; auxiliary factor: none (no GTSF1)
# Outline: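 Cleave-'n-Seq: a transcribed, DNA-blocked target RNA library (0.1 nM) was mixed with 1 nM active affinity-purified piRISC carrying one synthetic guide, with or without 500 nM GTSF1 partner protein, in HEPES–potassium acetate buffer at 33 °C for 0–8 or 0–960 min. Uncleaved targets were sequenced and normalised to depth and to weakly complementary targets. Three trials were pooled, and k3 was capped at 0.0001 min^-1. The pre-steady-state cleavage rate came from a burst-and-steady-state fit.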
row,Sequence,pre-steady-state target cleavage rate
1,UCCUGGAUGUGCUUGCAUAGUAUUUAAUUA,0.021 ± 0.0066
2,UCCAGCUUCAGCUUGCAUAGUAUUUAGUUA,0.0465 ± 0.0064
3,UCCUGGAUGAGCUUGCAUCGUAUUUAGUUA,0.0272 ± 0.0072
4,AGGACGUACAGCUUGCAUAGUAUUUAGUAA,0.0646 ± 0.014
5,UCCUGGUACAGCUUGCAAAGUAUUAAGUUA,0.0147 ± 0.0043
6,AGGACCUACAGCUAGCAUAGUAUUUUGUUA,0.0171 ± 0.0034
7,UCCUGGAUGAGCUUGGAUAGUAAUUAGUUA,0.0138 ± 0.0052
8,UCCUGGAUGAGCAUUGCAUAGUAUUUAGUUA,0.016 ± 0.0046
9,UCCUGGAUGUGCUUGCAUAGAAUUUAGUAA,0.0041 ± 0.0025
10,UCCUGGUACAGCUUGCAUUGUAUUUUGUUA,0.0133 ± 0.0036
11,UCCUGGAACAGGUUGCAUACUAUUUAGUUA,0.0129 ± 0.0035
12,UCGACCUACGAGCUUGCAUAGUAUUUAGUUA,0.0529 ± 0.011
13,UCCUCCUACAGCUUGCAUAGUAUUUAGUGUA,0.0225 ± 0.0046
14,UCCACCUACUGCUUGCUUAGUAUUUAGUUA,0.0276 ± 0.0058
15,AGGACCUACAGCAUGCAUUGUAUUUAGUUA,0.0152 ± 0.0043
16,UCCUGCUACAGGUUGCAUUGUAUUUAGUUA,0.0149 ± 0.0041
17,UCCUGGAUGAGCUUGGAUAGUAUAUAGUUA,0.0165 ± 0.0054
18,UGGACCUAGAGCUUGCAUAGUAUUUUGUUA,0.0327 ± 0.0058
19,AGGACCUAGAGCUUGCAUAGUAUUUAGUUA,0.0629 ± 0.011
20,UCCUGGUACAGCUUGCAAAGUAUAUAGUUA,0.0222 ± 0.0067

row,Sequence,pre-steady-state target cleavage rate
1,UCCUGGUACUCCUUGCAUAGUAUUUAGUAA,0.00423 ± 0.0027
2,UCCUCCUACAGCUUGGUUAGUAUUUAGUUA,0.00939 ± 0.0024
3,UGGACCUUCAGCUUGCAUUGUAUUUAGUUA,0.037 ± 0.0098
4,UCCUGGUACAGCUUGCAUAGUAUUUAGCUUA,0.0296 ± 0.0086
5,UCCUGGAUGUCCUUGCAUAGCAUUUAGUUA,0.0054 ± 0.0015
6,UCCUGGUACAGCUUGCUUAGUAAUUAGUUA,0.0136 ± 0.004
7,UCCUGGAUGUCCUUGCAUAGUAUUCAGUUA,0.00481 ± 0.0019
8,UCCAGCUACAGCUUGCAAAGUAUUUAGUUA,0.0247 ± 0.0041
9,UCCUGCUUCAGCUUGCAUAGUAUUUAGAUA,0.0196 ± 0.0056
10,UCCUGGUACUGCUUGCAUAGUAUUUAGAAA,0.00412 ± 0.0024
11,UCCUGGAUCAGCUUGCAUAGUUUUUAGUAA,0.02 ± 0.0057
12,UCCUGGUACAGCUUGGAUAGUAUUUAGAUA,0.00847 ± 0.0027
13,AGGACCUACAGCUUGCAUAGUAUUUAUUUA,0.0905 ± 0.019
14,UCCUGGAUGUGCUUGCAUAGUAUUUAGUGA,0.0269 ± 0.0064
15,UCCUGGUAGUGCUUGCAUAGUAUUUAGUUA,0.0448 ± 0.011
16,AGGACCUACAGCUAGCAUUGUAUUUAGUUA,0.0101 ± 0.0028
17,UCGACCUACUGGUUGCAUAGUAUUUAGUUA,0.0375 ± 0.0059
18,UCGACCUACACCUUGCAUACUAUUUAGUUA,0.0281 ± 0.0057
19,AGGACCUUCAGCUUGCAUAGUAUUUUGUUA,0.0688 ± 0.013
20,UCCUCCAACAGCUUGCAUAGUAAUUAGUUA,0.0252 ± 0.0062
